Data: the supplement of paper PMC12632987
Over roughly 4,500 sequences, “median log2 fold change of GCK-ALFA target abundance (FLAG IP / Myc IP barcode read proportion)” has its median near 0.078; the lowest 2% begin near -0.6. This is one part of the list.

B1: GBRAP_128_3541 (protein)
chain: SLEEAKEKAKKVMEEIKNSTPEEAAKITKEFLEELKTWSDEEVEAAVEVIEELLPELTAEKLEVVADTIEEERPKFSPEKQNLLAGVEVEALNLAEEQEE
B2: GBRAP_184_5349 (protein)
chain: TTRDVLIEADTVDEAIAKLRAAAAEARAAGATLNVLIDVPINTKEEAEKLMDEVAELAAEGIVAGTVGITNVSDDDEIIDILVDRADEAGVRLVLAIDEE
B3: GBRAP_35_5525 (protein)
chain: NSDRTAAEMLVNTIEDLTLAVPDMPVDTLVAATRALVRSARELVEDLKDDPEALARLREALAALLAAIRRHHADDPAAAAAAAEVAAVIAEVEEALAAAA
B4: GBRAP_186_5368 (protein)
chain: SEKAKKEEEEFIDEAADKGHIVIGTLVVKEFTEEAKKRIEDEIRAAAEFSKEFGYKVAIIIKLKGSEEEYEELKKFVEEKVEELKKETGAEVEVKIIHDK
B5: GBRAP_18_5400 (protein)
chain: APSPFERAWAALSEELQAAVAKAIGDALSSEDEEERIDILVDALVEFAARTSPEELEAAAYLLLHSVVSRMEEAEEVARRFIERVPEMKPQAEAVVERLK
B6: GBRAP_80_6853 (protein)
chain: AEARLEKALAELAAVLPEAKPLAEEIVKLAKELGVPDEVIADTLEALTELAKVDPEEAKELLEELLEELKELKEEGDSEGAKAVLQGYAGEALLEAEELE
B7: GBRAP_184_5279 (protein)
chain: TVIHVELEAESGEEAMAQIRAAAAAARAAGAQLDLTLLLEGASEEEIMAVFDLLKALRDEGVIRRAVLGVDLPDDEETIDRLIERADEAGVRLVIAIEEK
B8: GBRAP_35_5506 (protein)
chain: DSMSTIADMLVATIDDTVLAIPDLDVETAVQISRQLIRSAREVAEDLKDDPEGLKRLRDSMERLRDALVKHYGDNPLAQEAIKEIDELIKELEERIKEAE
B9: GBRAP_160_4767 (protein)
chain: KEELKKLLEEVKEIFDEAIEMLKESPASEAPTIIAGAMGDVIMEVESSPAVSDELEEKIAEIMDKAEEEAKKLANAPKEEHIKLLEEAREKITKLIEEEI
B10: GBRAP_80_6828 (protein)
chain: AEKELEAVIKELAEVDPEIAKLVEEAIEIAKELGVPLEVLLRFAKAILELAKVDKEKALELVKELLEELKKAKEEGNRDEAIALLYDAESEALLAVEELE
B11: GBRAP_52_6343 (protein)
chain: SEEEIREVAEKIAEAVKAGDLEKAVELTREAAKRFSEEEVEEMLRITAELMVEALPDREDLAWEAAERLAKVVEEELGNEELADLYLAYLARLLVERRRA
B12: GBRAP_184_5095 (protein)
chain: KTLERHIEAETLEEAEAQIDAAIDEAAAAGANLTLLLSLKGVSEEEIVELVERLGRRAAEAGVPRVTLGIDQLLSEEAADRLIEVADRHGINLVLALPEE
B13: GBRAP_160_4697 (protein)
chain: SATAAKLKAFVDAEFAETKEMIKGETTEQRATIVAGTGGEVLMEFVENPEAPDELEDAVRAIFDATVATILANPNLTDAQLKALIDDARAAVKAAIDKHL
B14: GBRAP_128_3425 (protein)
chain: SSEEAVERARELLEAMLTAGPEEAKRLAEELAELFLSADLETAEKIAEVVREMIPQFTAEQLLILADAFRAALPKLTPEKANIAAGVIVDLLNAAEELEE
B15: GBRAP_184_5310 (protein)
chain: AVRHVVIEAETGEEAVAQLRAAAAAARAAGARLDVTLLLSNVSVEEFEAVMALLAEMRAAGILRDALVDVLDEKSEEEVDALVALADEAGVRLVVALPDE
B16: GBRAP_11_2663 (protein)
chain: KKEVLEEALKLAREAAETAEKLIEEGVDNEELIAKLEELIKKLKELAEKYLSKAIQSDVEVIVELFKEFKEDKENQLEYAQQLLAALRVLAGNLELELDE
B17: GBRAP_184_5250 (protein)
chain: EVAFLELDVNSPADIPAAVARFEAFARAHKGTVYVLLNAKGLTTEEKVELIERLGRAAREAGVEELVIDITDELTEEEADKLIAAADALGIRLVLALKEE
B18: GBRAP_184_5065 (protein)
chain: ETFEATLEVEDLEEAREKMEELAEEVKDHKGDLVVHLVLPEFNREIVELVLERLREIREAGYARRITVGLDADLTEEEVDFALELADEAGVNLTVALPEE
B19: GBRAP_137_3660 (protein)
chain: MKVKVEAKLDGDFGEVKIEAENEEVALEAADIAIDVARETGVNAAISVDKEEKTVYVDLIGDREKLEAFLKELVERLSEKYDVEVTVEEDGKVTKEEVKK
B20: GBRAP_160_4730 (protein)
chain: KERIKEFAEEAREIFKKAVEDSKNESKEEAAALFRGAAGEVLMDVMEDERFTDEQEETAAKILDELVKELEANWDASEEEKKKIVDEKIKELLEELLKIK
B21: GBRAP_184_5099 (protein)
chain: KVLVRKVEAKTKEEALKKIREVLEEAAAAGADLILLLKLENISEEEIVEIVREIGERARELGIPRVTLGIENDLSEETIDKLIKIADELGINLVLAIPEE
B22: GBRAP_125_3002 (protein)
chain: AKEAAAAQMRTIALAAGFSESLAAELARLVLAGSVRNALAAFALALGNEEAAELIEKLTEEQAAAVVAELAAIAEEEGPMSEEEMAERLLKIAKEALAKQ
B23: GBRAP_42_5731 (protein)
chain: KLAVTLEIVADTQEEAKAMVEEALKEDERLEKERGVIIRIEVAVPEGLSPEIKAMEKESEERAKEADAESDWVGVANTVEEVPKMIEAVVDIALEELEEK
B24: GBRAP_125_3008 (protein)
chain: GMEEVAEALGRIARRLGFSEEEVEELKRLALEHGIKGTFYALFKALGLDELADLVEKLTEEEVKEVVREVAAALEENPDLTPEEVVALIKEVLEKALAKK
B25: GBRAP_35_5625 (protein)
chain: NTNKEIAEATVAVMEDTLLAVDEVPAETFIDTAIKVAKAGIEVAKELKDDKENAKKILEAVKELLEAALKKAEETGAPEEKIKELKELLKEVEELEKKLK
B26: GBRAP_26_5459 (protein)
chain: MEEAEREAEERVREIAAELPDPRVAAAVVAEFSTELLEAEERIEAGEDPEEAFDEAEEEFLEFVRELMEEAGLSEEEIEEFLRKLREVFDELREKVLELL
B27: GBRAP_52_6332 (protein)
chain: SMEEVKKLAEELYKAIVAGDEEKAKKLAEEAVKKLSSEEILELAKIVAEKVSKEDYEVKVRAAEVFEYLAELVEKERGDERTAAEILGIYARTLYAAEQA
B28: GBRAP_160_4151 (protein)
chain: MEELEKLIKEIKEIAEEAIKMMEGESTEEAKNIAKVALGEIVLLVESSEAVSEEVKEKVGKIADEAEAYLDANPDASVEEIKEKLKEATEKVIKILKESK
B29: GBRAP_11_2698 (protein)
chain: KKEQLKEAAELAEELAKVLDQLIKEGPDNEELRKKAEELLEKITELTKKYGDEGAKKLTEIIKELWKKAQEDKENQVEYLKQARAAARVLAGQYLLEIEE

target: GABARAP, O95166; assay: median log2 fold change of GCK-ALFA target abundance (FLAG IP / Myc IP barcode read proportion) (log2 ratio); each designed protein is fused to an ALFA-tag nanobody in HEK293 cells to bring the named protein to FLAG-tagged glucokinase (GCK); Myc marks an untargeted standard; higher = target protein stabilised (more abundant); conditions: target protein: 3xFLAG-MCP-GCK-ALFA reporter; HEK293 landing pad (RPLP)
Sequence (O95166 whole entry, the tested form may be a part): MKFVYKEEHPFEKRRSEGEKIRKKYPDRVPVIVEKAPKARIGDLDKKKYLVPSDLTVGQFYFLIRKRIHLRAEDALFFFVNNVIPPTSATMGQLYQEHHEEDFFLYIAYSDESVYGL
Method in brief: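 Sequencing of reverse-transcribed, amplified circular RNA barcodes from anti-FLAG and anti-Myc immunoprecipitates provided the readout for an ALFA-nanobody-fused binder library recombined into HEK293 landing-pad cells. Those cells were induced with 2 μg mL^−1 doxycycline, transfected with a plasmid expressing a FLAG-tagged target and a Myc-tagged standard, and lysed after 48 h. Target abundance is the per-binder median log2 ratio of FLAG to Myc barcode read proportions. Only barcodes at a proportion of ≥10^−7 in both replicates and binders with ≥3 barcodes per replicate were kept, with a 10^−6 pseudocount added before the two replicates were pooled.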

| Binder | median log2 fold change |
| --- | --- |
| B1 | 0.096 |
| B2 | 0.135 |
| B3 | 0.152 |
| B4 | -0.0705 |
| B5 | 0.0564 |
| B6 | -0.267 |
| B7 | 0.0885 |
| B8 | -0.631 |
| B9 | 0.185 |
| B10 | 0.0224 |
| B11 | 0.039 |
| B12 | 0.0102 |
| B13 | 0.000167 |
| B14 | 0.228 |
| B15 | 0.0372 |
| B16 | 0.236 |
| B17 | -0.0237 |
| B18 | 0.0302 |
| B19 | 0.195 |
| B20 | 0.317 |
| B21 | -0.1 |
| B22 | 0.159 |
| B23 | 0.0102 |
| B24 | 0.0823 |
| B25 | -0.0947 |
| B26 | -0.266 |
| B27 | 0.177 |
| B28 | 0.325 |
| B29 | 0.135 |
